# Source: PubChem BioAssay AID463173 (ICCB-Longwood Screening Facility, Harvard Medical School, 2010)
# The whole screen tested about 52,000 compounds, of which about 1,700 (3.3%) were called active. Rule as the data show it: active = survival mostly below about 52% (no sharp cut-off); inactive = mostly above about 56%. This is one part of the list.
# System: Wild type
# Test: growth inhibition of S. aureus wild type versus tarO mutant, primary screen, teichoic acid synthesis inhibitors, RN4220, OD600 (AID 463173)
# Conditions: S. aureus RN4220 wild type/DeltatarO growth, OD600, 18 h, stronger effect = lower value, screened at 18.75 µg/mL (by protocol)
row,SMILES,survival
1,C=C(C)Cn1c(SCC(=O)Nc2cc(C)ccc2C)nc2sc3c(c2c1=O)CCCC3,inactive: 121%
2,COc1cc(OC)cc(C(=O)N2CCC(C(=O)NCCc3ccccc3)CC2)c1,inactive: 105%
3,COc1ccc(-c2ccnc3[nH]n(-c4ccccc4)c(=O)c23)cc1,inactive: 88%
4,CCC(=O)N1CCc2cc(Br)cc(S(=O)(=O)CCC(=O)N3CCN(c4ccccc4OC)CC3)c21,inactive: 84%
5,CCOC(=O)c1ccc(N2CCN(c3ccc(F)cc3)CC2)c(NC(=O)Nc2cccc(OC)c2)c1,inactive: 67%
6,COc1ccc(OCC(=O)Nc2ccc3c(c2)OCO3)cc1,inactive: 113%
7,COc1ccccc1N1CCN(S(=O)(=O)c2ccc3[nH]c4c(c3c2)CCCC4)CC1,inactive: 71%
8,CCOc1cc(-c2nnc(SCC(=O)NCc3ccccc3)nc2-c2ccc(OC)c(OCC)c2)ccc1OC,inactive: 93%
9,COc1ccc(/C=C\c2onc(C)c2S(=O)(=O)N2CCC(C(=O)Nc3ccc(Cl)cc3)CC2)cc1,inactive: 77%
10,COc1ccc(-c2ccc(Nc3ccc(C(=O)N4CCCCCC4)cc3)nn2)cc1,inactive: 120%
11,COc1ccc(C(=O)N2CC(=O)Nc3ccc(C)cc3C2c2ccccc2)c(OC)c1 (stereo not given),inactive: 74%
12,Cc1ccc(-n2ncc(C(=O)N3CCCCC3)c2C2CCN(C(=O)OC(C)(C)C)CC2)cc1C,inactive: 67%
13,CCc1ccc(NC(=O)C2CCCN(S(=O)(=O)c3ccc4c(c3)CCCN4C(C)=O)C2)cc1 (stereo not given),inactive: 71%
14,CC(=O)c1ccc(NC(=O)Cn2c(=O)c3cccn3c3ccccc32)cc1,inactive: 94%
15,Cc1ccc(NC(=O)Cn2c(=O)n(CCC(=O)N3CCc4ccccc4C3)c(=O)c3ccccc32)cc1,inactive: 93%
16,Cc1cc(C)cc(S(=O)(=O)Nc2cccc(-c3ccc(N4CCOCC4)nn3)c2)c1,inactive: 117%
17,COc1ccc(Cn2c(C(=O)O)c(CNCCc3cccs3)c3ccc(C)cc32)cc1,inactive: 77%
18,COc1ccccc1CNC(=O)c1ccc2c(c1)N(Cc1cccc(Cl)c1)C(=O)c1ccccc1S2(=O)=O,active: 10%
19,Cc1ccc(Cn2c(C(=O)O)c(CNC3CCCCCC3)c3ccc(C)cc32)cc1,inactive: 74%
20,CC(C)(C)C(=O)NCCc1nc2ccccc2n1CCCCOc1ccc(Cl)cc1,inactive: 28%
21,Cc1oc2ncn(CC(C)C)c(=O)c2c1C(=O)Nc1cc(F)ccc1F,inactive: 65%
22,COc1ccc(-n2nc3c(N4CCCC(C(=O)NCc5cccc(F)c5)C4)nnc(C)c3c2C)cc1 (stereo not given),inactive: 67%
23,NNc1ccc2nnc(C(F)(F)F)n2n1,inactive: 109%
24,COc1ccc(-c2nc(CNS(=O)(=O)c3ccccc3)cs2)cc1,inactive: 96%
25,COc1cccc(CNC(=O)c2cc3c(s2)-c2c(C)cccc2OC3)c1,inactive: 87%
26,Cc1ccc(C)c(OCCn2cc(C(=O)c3ccco3)c3ccccc32)c1,inactive: 108%
27,CCn1c(CNC(=O)C23CC4CC(CC(C4)C2)C3)nnc1SCC(=O)Nc1ccccc1,inactive: 77%
28,CC(C)(C)NC(=S)Nc1ccc2nccnc2c1,inactive: 105%

row,SMILES,survival
1,COc1ccccc1C(=O)NC1(C(F)(F)F)C(=O)Nc2c1c(=O)[nH]c(=O)n2-c1ccccc1 (stereo not given),inactive: 80%
2,Cc1oc2ncn(C)c(=O)c2c1C(=O)N1CCN(c2ccccc2)CC1,inactive: 86%
3,O=C(Oc1ccc(F)cc1)c1nc(SCc2ccccc2F)ncc1Cl,inactive: 90%
4,Cn1c(=O)c2c([nH]c(=O)n2Cc2ccc(Cl)cc2Cl)n(C)c1=O,inactive: 72%
5,Cc1ccc2c(c1)-c1nc(-c3ccc4c(c3)NC(=O)CO4)cc(-c3ccc(Cl)cc3)c1CO2,inactive: 72%
6,CC1CCCN(CCCNC(=O)c2cn(C)c3ccc(S(=O)(=O)N(C)C4CCCCC4)cc3c2=O)C1 (stereo not given),inactive: 87%
7,Cc1ccc(NS(=O)(=O)c2ccc3nc(-c4ccccc4)[nH]c3c2)c(Cl)c1,inactive: 60%
8,Cc1ccc2nc(N3CCN(C(=O)C4CC4)CC3)sc2c1,inactive: 79%
9,CCCc1c(C)c2ccc(O)c(CN3CCN(c4ccc(F)cc4)CC3)c2oc1=O,inactive: 92%
10,COc1ccccc1CNC(=O)CN1C(=O)CSc2ccc(S(=O)(=O)N3CCCCC3)cc21,inactive: 83%
11,COC(=O)c1c(Oc2ccc(C(C)=O)cc2)nnc(-c2ccccc2)c1-c1ccccc1,inactive: 95%
12,CCN(c1ccccc1)c1ncnc2c1cnn2-c1ccc(C)cc1C,inactive: 66%
13,CC1=C(C(=O)N2CCN(c3cccc(C(F)(F)F)c3)CC2)C2(CCCCC2)OC1=O,inactive: 123%
14,CCOC(=O)c1ccccc1NC(=O)c1cc2c(=O)oc3ccc(C)cc3c2s1,inactive: 86%
15,O=C1CS/C(=N/c2nc(-c3ccccc3)cs2)N1,inactive: 128%
16,Cc1ccc(NC(=O)Cn2cc3c(n2)CCCCC3)cc1,inactive: 90%
17,O=C(Nc1ccc(Cl)cc1Cl)c1cc(S(=O)(=O)N2CCc3ccccc32)ccc1F,inactive: 72%
18,CCOC(=O)c1noc2nc(C)n(CC(=O)Nc3ccccc3F)c(=O)c12,inactive: 124%
19,CCc1ccc(C2CC(=O)Nc3cc4c(cc32)OCO4)cc1 (stereo not given),inactive: 78%
20,Cc1cccc(N2CCN(C(=O)c3c(C)oc4ncnc(N5CCCCC5)c34)CC2)c1C,inactive: 67%
21,Cc1ccc(C)c(Nc2nc3c(S(=O)(=O)c4ccc(C(C)C)cc4)nnn3c3ccsc23)c1,inactive: 71%
22,COc1ccc(S(=O)(=O)n2ccnc2)cc1C(C)(C)C,inactive: 69%
23,CCc1ccccc1N1C(=O)N(Cc2ccccc2C)c2ccccc2S1(=O)=O,inactive: 69%
24,CCOc1ccc(CNC(=O)CSc2nnc(C)c3c(C)n(-c4ccccc4)nc23)cc1,inactive: 105%
25,COc1ccc(C(C(=O)NC2CCCC2)N(C(=O)c2ccco2)c2ccc(NC(C)=O)cc2)cc1OC (stereo not given),inactive: 108%
26,Cc1ccccc1CCNC(=O)c1ccc2c(c1)c(C)c(C)n2Cc1ccccc1,inactive: 124%
27,CC(C)CN(CCCNC(=O)CN1C(=O)CSc2ccc(S(=O)(=O)N3CCOCC3)cc21)CC(C)C,inactive: 92%
